# Results as given in patent publication US20250171556A1, “MULTISPECIFIC ANTIBODIES FOR TREATING CD47-ASSOCIATED DISEASES” (Virtuoso BINco, Inc., priority 2021, published 2025).
# B1: v9: three-chain anti-CD47 × anti-EpCAM bispecific antibody; SEQ ID NOs 503, 504, 505 (protein)
# chain 1: EVQLVESGGGLVQPGGSLRLSCAASGFTFNTYAMHWVRQAPGKGLEWVARIRSKTYNYATFYADSVKGRFTISRDDSKNTLYLQMNSLRAEDTAVYYCVTGSSYAMDYWGQGTTVTVSS[letters of human IgG1 constant region with changes left out]
# chain 2: DIQLTQSPSSLSASVGDRVTFTCRASQSIGTSLHWYQQKPGKAPKLLIKYASESISGIPSRFSGSGSGTDFTLTISSVQPEDFATYYCQQSNSWPYTFGQGTKLEIKRTVAAPSVFIFPPSDEQLKSGTASVVCLLNNFYPREAKVQWKVDNALQSGNSQESVTEQDSKDSTYSLSSTLTLSKADYEKHKVYACEVTHQGLSSPVTKSFNRGEC
# chain 3: EVQLLESGGGLVQPGGSLRLSCAASGFTFSNFAMSWVRQAPGKGLEWVSTISASGGRTFYADSVKGRFTISRDNSKNTLYLQMNSLRAEDTAVYYCAKEGSFGEGVDPWGQGTLVTVSSGGGGSGGGGSGGGGSSYELTQPPSVSVSPGQTARITCSGDALPKKYAYWYQQKSGQAPVLVIYEDNKRPSGIPERFSGSSSGTMATLTISGAQVEDEADYYCYSTDISGNHWVFGGGTKLTVLGGSGGSGGA[letters of human IgG1 Fc with changes left out]
# How the values were obtained:
# human EpCAM = target: T1, human EpCAM (Homo sapiens, UniProt P16422); assay: ELISA binding to recombinant human EpCAM; conditions: plate coated with 1 μg/ml recombinant human EpCAM
# T1 sequence (P16422 24-314): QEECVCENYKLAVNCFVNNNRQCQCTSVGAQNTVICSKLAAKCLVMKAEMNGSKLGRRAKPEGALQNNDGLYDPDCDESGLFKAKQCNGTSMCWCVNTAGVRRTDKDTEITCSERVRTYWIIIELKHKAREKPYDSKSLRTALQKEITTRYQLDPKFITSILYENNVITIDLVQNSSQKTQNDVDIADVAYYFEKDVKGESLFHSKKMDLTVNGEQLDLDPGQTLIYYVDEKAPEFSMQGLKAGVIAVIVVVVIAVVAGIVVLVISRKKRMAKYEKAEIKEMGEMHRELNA
# Procedure: (§1) A 96-well plate was coated overnight at 4° C. with 1 μg/ml recombinant human CD47 or human EpCAM. After washing 3 times, the plate was blocked with 300 μl 1% BSA in PBST at 37° C. for 1 hour. Serially diluted antibodies were added and incubated at 37° C. for 1 hour. The plate was then washed 4 times with PBST and incubated with 1:5000 diluted peroxidase labeled goat anti-human IgG (Fab specific) secondary antibody (Sigma, Cat #A0293) for 1 hour at 37° C. The plate was washed again 4 times with PBST, incubated with 3,3′,5,5′-tetramethylbenzidine (TMB) substrate for 15 min at room temperature, terminated with 1N HCl, and then read at 450 nm.
# ELISA assay was performed as described in EXAMPLE 3. The bindings of CD47×EpCAM_v9, v10 and v11 on human EpCAM and human CD47 were tested.
# human CD47 = human CD47 (Homo sapiens, UniProt Q08722); assay: ELISA binding to recombinant human CD47; conditions: plate coated with 1 μg/ml recombinant human CD47
# Procedure: as §1
# as §1, with “μg/mL” for “μg/ml”, “EGFR.” for “EpCAM.”, “μL” for “μl”
# ELISA assay was performed as described in EXAMPLE 3. […]
molecule,measurement,setting,value
B1,ELISA binding on human EpCAM recombinant protein,human EpCAM,robustly
same,ELISA binding on human CD47 recombinant protein,human CD47,robustly
